# Experimental data as given in publication PMC4336329 (PLoS ONE, 2015).
# The campaign covered roughly 310,000 compounds. About 14,000 (4.5%) showed an effect of 50% or more. The effect is printed as a negative number. The list shows a part of the results.
# Molecular target: human ether-à-go-go-related gene (hERG) potassium channel (human, UniProt Q12809)
# Experiment: primary screen, population patch clamp on CHO cells stably expressing hERG
# 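Note: peak tail current of the secondary pulse compared with the same well before compound.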
# Chain of human ether-à-go-go-related gene (hERG) potassium channel (Q12809 whole entry, looked up): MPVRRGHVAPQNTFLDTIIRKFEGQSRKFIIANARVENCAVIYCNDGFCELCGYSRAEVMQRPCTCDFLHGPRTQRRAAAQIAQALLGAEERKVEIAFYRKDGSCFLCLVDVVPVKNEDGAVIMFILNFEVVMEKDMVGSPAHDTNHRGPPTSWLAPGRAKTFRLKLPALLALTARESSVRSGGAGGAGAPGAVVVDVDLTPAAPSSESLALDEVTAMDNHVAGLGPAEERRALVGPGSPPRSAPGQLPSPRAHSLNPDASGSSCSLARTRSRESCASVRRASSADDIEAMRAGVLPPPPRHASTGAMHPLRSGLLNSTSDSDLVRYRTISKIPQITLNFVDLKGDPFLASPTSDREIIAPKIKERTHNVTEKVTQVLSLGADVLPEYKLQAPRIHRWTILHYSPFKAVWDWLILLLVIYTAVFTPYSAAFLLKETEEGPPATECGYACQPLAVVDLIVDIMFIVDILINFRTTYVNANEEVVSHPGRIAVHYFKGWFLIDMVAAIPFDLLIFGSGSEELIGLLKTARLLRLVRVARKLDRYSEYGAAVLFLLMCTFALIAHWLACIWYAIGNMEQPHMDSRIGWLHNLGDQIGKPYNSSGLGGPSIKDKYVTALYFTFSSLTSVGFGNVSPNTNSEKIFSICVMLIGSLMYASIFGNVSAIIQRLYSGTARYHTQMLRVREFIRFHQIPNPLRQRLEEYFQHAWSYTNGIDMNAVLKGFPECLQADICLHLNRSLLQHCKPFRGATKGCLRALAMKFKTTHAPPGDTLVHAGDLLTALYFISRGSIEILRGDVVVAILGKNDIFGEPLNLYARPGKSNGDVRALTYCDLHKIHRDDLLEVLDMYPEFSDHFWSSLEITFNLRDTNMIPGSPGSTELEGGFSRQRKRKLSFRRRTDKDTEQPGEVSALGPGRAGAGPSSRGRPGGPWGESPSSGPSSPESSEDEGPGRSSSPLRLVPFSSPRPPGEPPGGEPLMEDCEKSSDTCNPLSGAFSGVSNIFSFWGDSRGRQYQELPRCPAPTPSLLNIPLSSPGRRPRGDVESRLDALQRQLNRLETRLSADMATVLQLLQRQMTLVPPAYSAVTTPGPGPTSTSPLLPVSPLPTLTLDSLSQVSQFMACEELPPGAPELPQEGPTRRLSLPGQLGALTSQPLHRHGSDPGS
row,Structure (SMILES),"hERG current change (%, negative = inhibition) at 10uM"
1,COc1ccc(OCCCC(=O)Nc2cccc([N+](=O)[O-])c2)cc1,-3.79%
2,COc1ccc(NC(=O)C(C)N2C(=O)C3CC=C(Cl)CC3C2=O)cc1 (stereo not shown),20.4%
3,Cc1cc(NC(=O)CN2C(=O)/C(=C/c3cccc(Br)c3)SC2=S)no1,-2.16%
4,O=C(c1cc(S(=O)(=O)N2CCC3(CC2)OCCO3)ccc1F)N1CCCCC1,-11.9%
5,O=C(NCc1cccs1)c1cc(S(=O)(=O)N2CCCCC2)ccc1Cl,5.07%
6,COc1ccccc1N1CCN(C(CNS(=O)(=O)c2ccc(C)cc2)c2cccnc2)CC1 (stereo not shown),-38.9%
7,CCOC(=O)C1=C(O)C(=O)N(c2ccc(S(N)(=O)=O)cc2)C1c1ccc(Cl)cc1 (stereo not shown),0.263%
8,COc1ccc(/C=N/Nc2nnc(Cc3ccccc3)c(=O)[nH]2)cc1,-15.1%
9,N#Cc1ccc(Cl)cc1NC(=O)COC(=O)c1ccc2c(c1)OCCO2,2.9%
10,N#C/C(=C\c1ccc([N+](=O)[O-])cc1)c1nc(C2CC2)cs1,4.29%
11,Cc1cccc(OCC(O)Cn2c(N3CCCCC3)nc3c2c(=O)n(C)c(=O)n3C)c1 (stereo not shown),-13.7%
12,c1coc(Cn2c(SCc3nc4ccccc4[nH]3)nnc2-c2cccs2)c1,-28%
13,CN(c1ccccc1)S(=O)(=O)c1cccc(NC(=O)CSc2n[nH]c(N)n2)c1,13.1%
14,COc1ccc(Cl)cc1N1C(=N)SCC1=O,38.5%
15,Cc1ccc(S(=O)(=O)N2CCN(C(=O)COC(=O)c3cnc(C)cn3)CC2)c(C)c1,14.7%
16,O=C(CN(c1ccccc1)S(=O)(=O)c1ccccc1)NCCSCc1ccco1,-12.6%
17,O=C1N(Cc2cccnc2)C[C@@H]2C[C@@H](c3cccc(OCc4ccccc4)c3)N3CCC[C@@]123,-63.6%
18,Clc1ccc(Nc2ccc3ccccc3n2)cc1,18.3%
19,CSCCC(NC(=O)C1CCC(C)CC1)C(=O)NCc1ccco1 (stereo not shown),-17.5%
20,Cc1onc(-c2c(Cl)cccc2Cl)c1C(=O)N/N=C(\N)COc1ccc(Cl)cc1,-45.7%
21,COc1cc(C2NC(=O)NC(C)=C2C(=O)OC2CCC(C)CC2)ccc1O (stereo not shown),13%
22,COc1ccccc1N(CC(=O)NC1CCCCC1)C(=O)CCC(=O)Nc1ccccn1,-3.39%

row,Structure (SMILES),"hERG current change (%, negative = inhibition) at 10uM"
1,Cc1ccc(C)c2[nH]c(=O)c(CN(Cc3ccco3)S(=O)(=O)c3ccc4c(c3)OCCO4)cc12,9.44%
2,Cc1cc2nn(-c3ccccc3)nc2cc1NC(=O)c1cccs1,-6.84%
3,COc1ccc(C(c2oc(CO)cc(=O)c2O)c2oc(CO)cc(=O)c2O)cc1OC,14.3%
4,Cc1ccc(OCC(=O)N2c3ccccc3CC2C)c([N+](=O)[O-])n1 (stereo not shown),3.51%
5,COc1ccc(Cc2nnc(SCC(=O)NCc3ccco3)o2)cc1,8.75%
6,Cc1cc(C(F)(F)F)cc(NNC(=O)NC(=O)c2c(F)cccc2Cl)n1,-14.1%
7,CCOc1ccc(C(=O)NNC(=O)CN2C(=O)NC3(CCCC3)C2=O)cc1,-5.43%
8,Clc1ccc(CSc2snnc2-c2ccccc2)cc1,2.46%
9,COc1cccc(CNC(=O)COC(=O)CN2C(=O)NC3(CCCCC3C)C2=O)c1 (stereo not shown),2.13%
10,Cc1cc(NC(=O)CCC(=O)N(c2cccc(F)c2)C(C(=O)NC2CCCC2)c2ccc(C)o2)no1 (stereo not shown),13.9%
11,O=C(Oc1c(-c2ccccc2)c(=O)n2c3c(cccc13)CC2)c1ccc(F)cc1,10.4%
12,CCOC(=O)C1CCCN(C(=O)CN(c2ccc(OC)cc2)S(=O)(=O)c2c(C)noc2C)C1 (stereo not shown),-4.08%
13,Cc1ccc(C(=O)NC2CCCCCC2)cc1S(=O)(=O)N1CCOCC1,-26.5%
14,COc1ccc(C)cc1S(=O)(=O)N(C)CC(=O)N1CCN(c2ccccc2)CC1,-41.3%
15,COc1ccc(CCNC(=O)c2cnc3ccccc3n2)cc1,9.44%
16,Cl.c1ccc(CSc2nnc(-c3cccnc3)o2)cc1,-34.1%
17,O=C(CSc1nnnn1C1CCCCC1)NCc1cccc(C(=O)O)c1,1.79%
18,CC(NS(=O)(=O)c1ccc(OCC(=O)N2CCOCC2)c(Cl)c1)c1ccccc1 (stereo not shown),-0.661%
19,O=S(=O)(c1cccs1)N1CCN(c2ccnc3cc(Cl)ccc23)CC1,-68.4%
20,COc1ccc(OCCCC(=O)NNC(=O)c2ccncc2)cc1,2.97%
21,CN(Cc1ccccc1)C(=O)C1CCN(S(=O)(=O)c2cccc3nonc23)CC1,-18.8%
22,COc1ccc2c(c1)C(=O)/C(=C/C=C/c1ccccc1)CC2,20.4%

row,Structure (SMILES),"hERG current change (%, negative = inhibition) at 10uM"
1,CCN(CC(=O)Nc1cc(Cl)ccc1C)C(=O)c1cc(S(=O)(=O)N2CCCCCC2)ccc1OC,-14.7%
2,COc1cc(C(=O)O/N=C2\C=CC(=O)C=C2C)cc(OC)c1OC,-1.85%
3,COc1cc(C(c2nnnn2C2CCCC2)N2CCN(C)CC2)cc(OC)c1OC.Cl (stereo not shown),13.9%
4,Cc1ccc(N2CC(C(=O)Nc3ccccc3N3CCCC3)CC2=O)cc1 (stereo not shown),-3.38%
5,O=[N+]([O-])c1cc(S(=O)(=O)NCCN2CCOCC2)ccc1Sc1nnnn1-c1ccccc1,-24.6%
6,COc1ccc(OC)c(NC(=O)C(CCS(C)(=O)=O)NC(C)=O)c1 (stereo not shown),10.4%
7,CC(=O)CSc1nnc(-c2ccncc2)n1C,29.9%
8,Cc1ccc(-c2csc(NC(=O)Cc3ccc(F)cc3)n2)o1,23.6%
9,COc1ccc(-c2oc3ccccc3c(=O)c2OC(=O)c2ccc(C)cc2)cc1,14.1%
10,COc1ccc(-c2cc(C#N)nc(N3CCN(c4ccccc4)CC3)n2)cc1,3.41%
11,CCC(=O)N1CCN(c2ccc(NC(=O)c3cc4ccccc4o3)cc2)CC1,-23.3%
12,CCOC(=O)Cn1nc(C)n(-c2cccc(Cl)c2)c1=O,12.8%
13,CC1CN(C(=O)c2cccc(S(=O)(=O)Nc3ccccc3Cl)c2)CC(C)O1 (stereo not shown),19.5%
14,COc1cccc(NC(=O)CCc2ccccc2)c1,-12%
15,NC(=O)C1CCN(C(=O)CN(c2ccc3c(c2)OCCO3)S(=O)(=O)c2ccccc2)CC1,-18%
16,COCc1cc(=O)[nH]c(SC)n1,7.44%
17,COc1ccc(N(C(=O)c2cccnc2)S(=O)(=O)c2cccs2)cc1,-12.3%
18,Cc1ccc2cc(CN(CCN3CCCC3)C(=O)Nc3ccc(F)cc3)c(=O)[nH]c2c1C,-70.7%
19,CCOc1cccc(/C=N/Nc2ccc(S(=O)(=O)N(CC)CC)cn2)c1O,6.79%
20,CC(=O)NC(=S)NNC(=O)c1ccc(Br)cc1,15.4%
21,CCC(C)NC(=O)c1ccc(NC(=O)C2=C(C)OCCS2)cc1 (stereo not shown),23.4%
22,CN(c1ccccc1)S(=O)(=O)c1ccc(NC(=O)c2ccccc2)cc1,-12.8%

row,Structure (SMILES),"hERG current change (%, negative = inhibition) at 10uM"
1,Cc1nn(CC(=O)NCC(C)c2ccccc2)c(=O)c2cccn12 (stereo not shown),13.4%
2,CC1CN(S(=O)(=O)c2cccc(C(=O)NCc3ccc4c(c3)OCO4)c2)CC(C)O1 (stereo not shown),-25.2%
3,CN(C)c1ccccc1C(=O)N1CCCC(Nc2ccc(F)cc2)C1 (stereo not shown),-23.7%
4,CC(C)c1ccc(C(CC(=O)O)N2Cc3ccccc3C2=O)cc1 (stereo not shown),7.11%
5,N#C/C(=C\c1cn(-c2ccccc2)nc1-c1ccccc1)S(=O)(=O)c1ccccc1,4.99%
6,O=[S@]1Oc2ccccc2-c2ccccc21,7.82%
7,C/C(=N\NC(=S)NCc1ccccc1)c1ccco1,-17.4%
8,Cc1ccc(S(=O)(=O)NCc2csc(-c3cccs3)n2)cc1,5.86%
9,Cc1nn(Cc2cccc(C(=O)Nn3cc([N+](=O)[O-])cn3)c2)c(C)c1[N+](=O)[O-],4.46%
10,Cc1cc(Br)ccc1SCC(=O)OCC(=O)Nc1ccccc1C#N,13.1%
11,CN1C2C=C3C(C#N)=C(N)C(C#N)(C#N)[C@@H](c4ccc(Cl)cc4)[C@@H]3C1CC2 (stereo partly shown),-16.6%
12,CCOC(=O)Cc1ccc(NC(=O)c2ccccc2Br)cc1,-7.9%
13,COc1ccccc1C(=O)N(Cc1ccccc1)c1ccc(C)cc1,-2.96%
14,O=C(COC(=O)[C@H](Cc1c[nH]c2ccccc12)NC(=O)c1cccs1)NCc1ccccc1,-1.82%
15,CC(C)C[C@H](NC(=O)c1nc[nH]c1C(=O)N(C)Cc1ccccc1)C(=O)OCc1ccccc1,7.57%
16,COCc1nnc(NC(=O)c2cccs2)s1,18.2%
17,O=C(O)C(=O)O.c1ccc(-n2cccc2CNC2CCCCC2)cc1,-8.93%
18,O=C(/C=C/c1cccs1)c1cc(Cl)ccc1O,0.301%
19,Cc1cc(C)cc(C(=O)NCC(=O)OCC(=O)Nc2cccnc2Cl)c1,-42.6%
